Results: ChEMBL document CHEMBL1201862, “PubChem BioAssay data set” (2004)

The compounds below were run on NCI-H322M (assay: NCI-60 cell line screen, 48 h).

SMILES	GI50
Cc1nc2cccc(F)c2c(=O)n1-c1nnc(C(F)(F)F)s1	inactive: > 10 µM
CC[C@H](CC[C@@H](C)[C@H]1CC[C@H]2[C@@H]3CC=C4C[C@@H](O)CC[C@]4(C)[C@H]3CC[C@]12C)C(C)C [BETA-SITOSTEROL]	inactive: > 100 µM
O=C(O)c1ccc(NC(=O)C2C(=O)C(=O)N(c3ccc(C(=O)O)cc3)C2=O)cc1 (stereo not given)	inactive: > 100 µM
Cc1nc2ccccc2n1Cc1nnc(N)o1	inactive: > 100 µM
O=C1C(NCCc2ccc(O)c([N+](=O)[O-])c2)=CC(=O)c2[nH]cnc21	inactive: 22.4 µM
O=C1OC(=O)C([Se]c2ccccc2)=C1[Se]c1ccccc1	inactive: > 100 µM
Clc1ccc(C2SCc3nc4ccccc4n32)c(Cl)c1 (stereo not given)	inactive: 12.9 µM
CCOC(=O)C1=C(NC(C)(C)C)OC/C1=N\NC(=O)Cc1ccccc1	inactive: > 100 µM
CCN(CC)CCCNc1nncc2c(C)c3[nH]c4ccc(OC)cc4c3cc12	active: 0.418 µM
COc1ccc(C[n+]2cccc(O)c2)cc1	inactive: > 100 µM
Cc1ccc(S(=O)(=O)/N=C(\NN)Nc2ccc(Cl)cc2)cc1	inactive: > 100 µM
NC(=O)N(O)c1cccc(Br)c1	inactive: > 100 µM
CCOC(=O)C1Nc2ccc([N+](=O)[O-])cc2[C@H]2OCC[C@@H]12 (stereo not given in full)	inactive: > 100 µM
O=c1ccc(-c2ccc(-n3ccnc3)cc2)nn1CCO	inactive: > 100 µM
NC(=O)CCC(Nc1c2ccccc2nc2ccccc12)C(=O)O (stereo not given)	inactive: > 100 µM
N#Cc1c2c(c(N=[N+]=[N-])n3c1nc1ccccc13)CCCC2	inactive: 12.8 µM
Cc1nnc(N)nc1/C=C\c1ccc(Cl)cc1Cl	inactive: 66.7 µM
CCOC(=O)c1cn(CC)c2ccc3ccsc3c2c1=O	inactive: > 100 µM
C/C1=C\CC/C(C)=C/C=C(/C(C)C)CC/C(C(=O)O)=C/CC1 [CROTOCEMBRANEIC ACID]	inactive: 53.1 µM
Cc1cc(Cl)cc2c1NC(=O)C2(O)CC(=O)c1ccco1 (stereo not given)	inactive: > 55.7 µM
O=S(=O)(O)c1ccc(/N=N/c2ccc(/N=N/c3c(O)ccc4ccc(S(=O)(=O)O)cc34)cc2)cc1	inactive: > 100 µM
CC(C)(C)NCC(O)c1ccc(O)c(CO)n1 (stereo not given)	inactive: > 100 µM
CN(C)c1ccc(C(=O)NCCCCCCC(=O)NO)cc1	active: 0.824 µM

SMILES	GI50
O=[N+]([O-])C1=Cc2cc(Cl)ccc2OC1c1cccc2ccccc12 (stereo not given)	inactive: 1.67 µM
O=C(O)C1(Cc2ccc3c(c2)CCC3)Cc2ccccc2C1	inactive: 62.7 µM
CC12CCC(=O)C=C1CCC1C2CCC2(C)C(C(=O)Cn3cnc4c(=S)nc[nH]c43)CCC12 (stereo not given)	inactive: 74 µM
CSc1nc(-c2ccccc2)[nH]c(=O)n1	inactive: 54.7 µM
O=C1c2ccccc2C2(c3ccc(F)cc3)NCCN12 (stereo not given)	inactive: > 100 µM
O=[N+]([O-])/C(C(Cl)=C(Cl)Cl)=C(\SCc1ccccc1)N1CCCCC1	inactive: 38.4 µM
CCCCCC(=O)Nc1[nH]cnc1C(N)=O	inactive: > 100 µM
COc1ccc(C2C(Cl)C(=O)N2NC(=O)c2ccccc2O)cc1OC (stereo not given)	inactive: 43.5 µM
NC(=O)C(=CNC(=S)Nc1ccccc1)C(N)=O	inactive: > 100 µM
COC(=O)CCC(=O)c1ccc2c(c1)CCC2	inactive: > 100 µM
N=C(N)NS(=O)(=O)c1ccc(NNC(=O)c2cccc3c(O)c4ccccc4nc23)cc1	inactive: 22.2 µM
CC[C@@]1(OC(=O)C(N)CCCCN)C(=O)OCc2c1cc1n(c2=O)Cc2cc3ccccc3nc2-1 (stereo not given in full)	active: 0.121 µM
CC(C)C(=O)C(C)(C)CCc1ccccn1	inactive: > 100 µM
COC(=O)C(=O)C(C(=O)OC)C(=O)C(=O)Nc1ccccc1C(N)=O (stereo not given)	inactive: > 100 µM
C/C=C1/CN2[C@@H](C3=C[C@@H]4[C@@H]5N(C3=O)c3ccccc3[C@@]53CCN5C/C(=C/C)[C@@H]4C[C@H]53)C[C@@]34c5ccccc5N5C(=O)CC=C([C@H]1C[C@H]23)[C@H]54 [ISOSUNGUCINE]	inactive: 6.32 µM
COc1cc(C2SCC(=O)N2c2ccc(Cl)cc2)cc(OC)c1OC (stereo not given)	inactive: 16.6 µM
Cc1cc(C)nc(NS(=O)(=O)c2ccc(NC(=O)NC(F)(F)F)cc2)n1	inactive: > 100 µM
CSC1=C(C#N)C(=O)N(c2ccc(C)cc2)C(=S)C1C#N (stereo not given)	inactive: > 100 µM
CN(NC(=O)c1ccco1)C1=NCCCCN1	inactive: > 100 µM
CC1=C2C(O)C(C(C)C(=O)NCC(C)C)CCC2(C)C=CC1=O (stereo not given)	inactive: > 100 µM
C=C(C)C(=O)N1c2ccc(OC)cc2CC1C(=O)OCC (stereo not given)	inactive: > 100 µM
O=NN(CCCl)C(=O)N[C@H]1CC[C@@H](C(=O)O)CC1	inactive: > 100 µM

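All cell lines were grown in 96-well plates and treated with compound for 48 hours. GI50 is the concentration that inhibits growth by half.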 The source made the active and inactive calls. Cut-off read from the data, not from the text of the source: active = GI50 up to about 1.1 µM and inactive = higher.
